Data on 1 molecule can be found in patent publication US20130280256A1 (Eli Lilly, published 2013).

For assay [1], the target named is T1, human IL-17 (homodimer of two human IL-17A proteins) (human, UniProt Q16552 24-155).
T1 construct: also called recombinant IL-17
T1 sequence (looked up): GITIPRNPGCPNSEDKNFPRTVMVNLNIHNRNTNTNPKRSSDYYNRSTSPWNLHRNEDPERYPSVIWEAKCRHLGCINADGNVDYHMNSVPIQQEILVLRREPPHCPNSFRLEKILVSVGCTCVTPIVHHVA
Description: SPR, kinetic binding experiment. The method, then:
(§1) Antibody samples are prepared at 10 mcg/mL by dilution into running buffer. Human IL-17 or human BAFF are prepared at final concentrations of 20.0, 10.0, 5.0, 2.5, 1.25 and 0 (blank) nM by dilution into running buffer. Each analysis cycle consists of (1) capturing antibody samples on separate flow cells (Fc2, Fc3, and Fc4), (2) injection of 250 mcL (300-sec) of human IL-17 or human BAFF over all Fc at 50 mcL/min, (3) return to buffer flow for 20 mM to monitor dissociation phase, (4) regeneration of chip surfaces with a 5 mcL (30-sec) injection of glycine, pH1.5, (5) equilibration of chip surfaces with a 10 mcL (60-sec) injection of HBS-EP+. Data are processed using standard double-referencing and fit to a 1:1 binding model using Biacore 2000 Evaluation software, version 4.1, to determine the association rate (kₒₙ, M⁻¹s⁻¹ units), dissociation rate (koff, s⁻¹ units), and Rₘₐₓ (RU units). The equilibrium dissociation constant (KD) is calculated as from the relationship KD=koff/kₒₙ, and is in molar units.
(§2) All measurements are performed at 25° C.
(SPR reads the build-up and loss of mass on a sensor chip optically.)

In assay [2] the target is T2, human BAFF (B-cell Activating Factor of the TNF Family) (human, UniProt Q9Y275 in part).
T2 construct: Called soluble BAFF in the T1165 assay; also called soluble BAFF
T2 sequence (Q9Y275 134-285 limits assumed): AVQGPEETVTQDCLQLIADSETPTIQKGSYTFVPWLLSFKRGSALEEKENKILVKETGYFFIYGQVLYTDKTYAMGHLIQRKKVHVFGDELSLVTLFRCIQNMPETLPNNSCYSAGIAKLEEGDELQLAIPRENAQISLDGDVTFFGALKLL
Description: SPR, kinetic binding experiment. The method, then: as §1, §2

In assay [3] the target is T1, human IL-17 (homodimer of two human …). In words: SPR (Biacore 2000), antibody captured on protein A, antigen as analyte, 25 C, 1:1 model, n=3. How it is done:
as §1, with “A CM5 chip containing immobilized protein A (generated using standard NHS-EDC amine coupling) on all four flow cells (Fc) is used to employ a capture methodology. Antibody” for “Antibody”

The target of assay [4] is T2, human BAFF (B-cell Activating Factor of …). The description is as above. The method, then: as §1, with “A CM5 chip containing immobilized protein A (generated using standard NHS-EDC amine coupling) on all four flow cells (Fc) is used to employ a capture methodology. Antibody” for “Antibody”

Usually Kd stands for the concentration at which binding is half-saturated. For orientation: koff means a measure of how fast the partners let go of each other. A word on the kon: it is the second-order rate constant of association. High values mean fast association, low ones slow association.

B1: bispecific antibody comprising two first polypeptides of SEQ ID NO:1 and two second polypeptides of SEQ ID NO:2 (anti-BAFF IgG4 MAb with C-terminal anti-IL-17 … (bispecific antibody)
heavy: QVQLQQWGAGLLKPSETLSLTCAVYGGSFSGYYWSWIRQPPGKGLEWIGEINHSGSTNYNPSLKSRVTISVDTSKNQFSLKLSSVTAADTAVYYCARGYYDILTGYYYYFDYWGQGTLVTVSSASTKGPSVFPLAPCSRSTSESTAALGCLVKDYFPEPVTVSWNSGALTSGVHTFPAVLQSSGLYSLSSVVTVPSSSLGTKTYTCNVDHKPSNTKVDKRV[gap - human IgG4 Fc with S228P L445P (EU numbers)]GGGSGGGGTGGGGSQVQLVQSGAEVKKPGSSVKVSCKASGYKFTDYHIHWVRQAPGQCLEWMGVINPTYGTTDYNQRFKGRVTITADESTSTAYMELSSLRSEDTAVYYCARYDYFTGTGVYWGQGTLVTVSSGGGGSGGGGSGGGGSGGGGSDIVMTQTPLSLSVTPGQPASISCRSSRSLVHSRGETYLHWYLQKPGQSPQLLIYKVSNRFIGVPDRFSGSGSGTDFTLKISRVEAEDVGVYYCSQSTHLPFTFGCGTKLEIK
light: EIVLTQSPATLSLSPGERATLSCRASQSVSRYLAWYQQKPGQAPRLLIYDASNRATGIPARFSGSGSGTDSTLTISSLEPEDFAVYYCQQRSNWPRTFGQGTKVEIKRTVAAPSVFIFPPSDEQLKSGTASVVCLLNNFYPREAKVQWKVDNALQSGNSQESVTEQDSKDSTYSLSNTLTLSKADYEKHKVYACEVTHQGLSSPVTKSFNRGEC
modifications: glycosylated at asparagine residue 300 of SEQ ID NO:1
notes: MAb-scFv format, tetravalent; About 90:10 correctly folded antibody to diabody; also called anti-BAFF-anti-IL-17 bispecific antibody
With B1, the stoichiometry in assay [1] is around 1.3. This molecule also gave a stoichiometry in assay [2] of around 1. In addition, in assay [3], the Kd was 0.014 nM, the koff turned out to be 3.7e-05 s⁻¹ and the association rate constant (kon) worked out at 2.5e+06 M⁻¹ s⁻¹. Also, in assay [4], the dissociation constant Kd is 0.06 nM, the koff amounted to 0.00012 s⁻¹ and the kon worked out at 2.3e+06 M⁻¹ s⁻¹.
